Measurements as given in article PMC13083723 (Patterns, 2026).
The whole screen tested about 5,400 compounds, of which about 190 (3.5%) showed an effect of 50% or more. The list shows a part of the results.

tested on: Vero-E6; assay: primary screen, phospholipidosis by LipidTOX staining; higher = more effect of the substance; settings: 10 µM
In short: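 Drug-induced phospholipidosis detected with HCS LipidTOX Red reagent in Vero-E6 cells. Compounds tested at 10 μM, with amiodarone (10 μM) as positive control and DMSO (0.1 v/v %) as vehicle.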

**Q.** `O=C(O)c1cc(O)c(O)c(O)c1` was tested. Which result_ITMP did it give?
**A.** The result_ITMP was -3.35%.

**Q.** Which result_ITMP does the source give for `CCN(CC)C(=O)N1CCN(C)CC1` here?
**A.** Its result_ITMP is -3.95%.

**Q.** How did the result_ITMP turn out when `CCCCC#Cc1nc(NC)c2ncn([C@@H]3O[C@H](CO)[C@@H](O)[C@H]3O)c2n1` was run?
**A.** The result_ITMP was -6.97%.

**Q.** How did the result_ITMP turn out when `Cc1cc(NC(=O)Nc2ccc(F)c(F)c2)n(-c2ccccc2)n1` was run?
**A.** The result_ITMP was -2.49%.

**Q.** With `CCn1c(-c2nonc2N)nc2cnc(Oc3cccc(NC(=O)c4ccc(OCCN5CCOCC5)cc4)c3)cc21` as the compound, how does the result_ITMP read?
**A.** The result_ITMP was 26.7%.

**Q.** For `Cc1cccc(NC(=O)c2ccc(C(F)(F)F)cc2C(=O)O)n1`, which result_ITMP is on record?
**A.** Its result_ITMP is -1.47%.

**Q.** `CC(C)(C)C(O)/C=C/c1ccc2c(c1)OCO2` (centres unmarked) was tested. Which result_ITMP did it give?
**A.** The result_ITMP was -1.46%.

**Q.** With `CCc1cc(/C(C)=N/OCc2ccc(C3CCCCC3)c(C(F)(F)F)c2)ccc1CN1CC(C(=O)O)C1` as the compound, how does the result_ITMP read?
**A.** Its result_ITMP is -6.28%.

**Q.** Which result_ITMP does the source give for `CCN(CCCc1ccccc1)CCCc1ccccc1` here?
**A.** The result_ITMP was 58.9%.

**Q.** How did the result_ITMP turn out when `Cc1cccc(Oc2cnc(=O)[nH]c2)c1` was run?
**A.** Its result_ITMP is -0.63%.

**Q.** For `C[C@@H](C1=C(CCN(C)C)Cc2ccccc21)c1ccccn1`, which result_ITMP is on record?
**A.** The result_ITMP was 12%.

**Q.** How did the result_ITMP turn out when `COc1cc2c(cc1OC)CN(CCc1ccc(NC(=O)c3cccc4c(=O)c5cccc(OC)c5[nH]c34)cc1)CC2` was run?
**A.** The result_ITMP was -2.1%.

**Q.** For `CC(CCc1ccc(O)cc1)NCC(O)c1ccc(O)cc1` (centres unmarked), which result_ITMP is on record?
**A.** The result_ITMP was 1.5%.

**Q.** For `CC(=O)[C@H]1CC[C@H]2[C@@H]3CC=C4C[C@@H](OC(=O)CCC(=O)O)CC[C@]4(C)[C@H]3CC[C@]12C`, which result_ITMP is on record?
**A.** Its result_ITMP is 1.56%.

**Q.** For `CC(O)C(CO)NC(=O)C1CSSCC(NC(=O)C(N)Cc2ccccc2)C(=O)NC(Cc2ccccc2)C(=O)NC(Cc2c[nH]c3ccccc23)C(=O)NC(CCCCN)C(=O)NC(C(C)O)C(=O)N1` (centres unmarked), which result_ITMP is on record?
**A.** The result_ITMP was -2.71%.

**Q.** For `Cc1[nH]c(/C=C2\C(=O)Nc3ccc(S(=O)(=O)Cc4c(Cl)cccc4Cl)cc32)c(C)c1C(=O)N1CCC[C@@H]1CN1CCCC1`, which result_ITMP is on record?
**A.** The result_ITMP was -0.4%.

**Q.** Which result_ITMP does the source give for `COc1ccc(CNCc2cccc3ccccc23)cc1` here?
**A.** Its result_ITMP is 11.4%.

**Q.** Which result_ITMP does the source give for `NC(=O)[C@@H](CCC(F)(F)F)N(Cc1ccc(-c2ncon2)cc1F)S(=O)(=O)c1ccc(Cl)cc1` here?
**A.** Its result_ITMP is 2.75%.

**Q.** `C=C(C)CN1CC[C@]23c4c5ccc(O)c4O[C@H]2c2[nH]c4ccccc4c2C[C@@]3(O)C1C5` was tested. Which result_ITMP did it give?
**A.** Its result_ITMP is 32.1%.

**Q.** How did the result_ITMP turn out when `CCCCCCCCCC(=O)O[C@H]1CC[C@H]2[C@@H]3CCC4=CC(=O)CC[C@@H]4[C@H]3CC[C@]12C` was run?
**A.** Its result_ITMP is -0.22%.

**Q.** Which result_ITMP does the source give for `CC1=C(C(=O)O)N2C(=O)[C@@H](NC(=O)[C@H](N)c3ccc(O)cc3)[C@H]2SC1` here?
**A.** Its result_ITMP is -1.06%.

**Q.** With `N#CC(=C(/N)Sc1ccccc1N)/C(C#N)=C(\N)Sc1ccccc1N` as the compound, how does the result_ITMP read?
**A.** Its result_ITMP is -4.66%.

**Q.** Which result_ITMP does the source give for `C[C@@]1(O)[C@H](O)[C@@H](CO)O[C@H]1n1cnc2c(NC3CCCC3)nc(Cl)nc21` here?
**A.** Its result_ITMP is -1.91%.

**Q.** With `CC(C)c1onc(-c2c(Cl)cccc2Cl)c1COc1ccc(/C=C/c2cccc(C(=O)O)c2)c(Cl)c1` as the compound, how does the result_ITMP read?
**A.** Its result_ITMP is -2.39%.

**Q.** How did the result_ITMP turn out when `Nc1nc(Nc2ccc(S(N)(=O)=O)cc2)nn1C(=O)c1c(F)cccc1F` was run?
**A.** The result_ITMP was 20.5%.

**Q.** `O=C1C2CC=CCC2C(=O)N1SC(Cl)(Cl)Cl` (centres unmarked) was tested. Which result_ITMP did it give?
**A.** Its result_ITMP is 1.48%.

**Q.** `CO[C@@H](C)Cn1c(=O)n(C)c2cnc3ccc(-c4cncc(C(C)(C)O)c4)cc3c21` was tested. Which result_ITMP did it give?
**A.** The result_ITMP was -0.17%.

**Q.** For `CC(C)OC(=O)[C@H](C)N[P@](=O)(CO[C@H](C)Cn1cnc2c(N)ncnc21)Oc1ccccc1`, which result_ITMP is on record?
**A.** Its result_ITMP is 6.26%.

**Q.** With `c1ccc(-c2cnn3cc(-c4ccc(OCCN5CCOCC5)cc4)cnc23)cc1` as the compound, how does the result_ITMP read?
**A.** Its result_ITMP is -1.94%.

**Q.** `C=CCN1CCCC1CNC(=O)c1cc2nn[nH]c2cc1OC` (centres unmarked) was tested. Which result_ITMP did it give?
**A.** The result_ITMP was 1.44%.

**Q.** For `CC(=O)O[C@@]12CO[C@@H]1C[C@H](O)[C@@]1(C)C(=O)[C@H](O)C3=C(C)[C@@H](O)C[C@@](O)([C@@H](OC(=O)c4ccccc4)[C@H]21)C3(C)C`, which result_ITMP is on record?
**A.** The result_ITMP was -5.35%.

**Q.** How did the result_ITMP turn out when `O=C(NCNC(=O)NC1C(=O)NC(=O)N1CO)NC1C(=O)NC(=O)N1CO` (centres unmarked) was run?
**A.** The result_ITMP was -4.37%.

**Q.** With `CCCCCCOc1nsnc1C1=CCCN(C)C1` as the compound, how does the result_ITMP read?
**A.** Its result_ITMP is 17.9%.

**Q.** For `O=[N+]([O-])c1ncc[nH]1`, which result_ITMP is on record?
**A.** Its result_ITMP is -0.75%.

**Q.** For `Cc1csc(NC(=O)CSc2ccc(-c3ccccc3)nn2)n1`, which result_ITMP is on record?
**A.** Its result_ITMP is -2.29%.

**Q.** How did the result_ITMP turn out when `COc1ccc(S(=O)(=O)Nc2cc(Cl)cc(Cl)c2OC)cc1N1CCNCC1` was run?
**A.** Its result_ITMP is 14.4%.

**Q.** For `c1ccc2c(-c3cnn4cc(-c5ccc(N6CCNCC6)cc5)cnc34)ccnc2c1`, which result_ITMP is on record?
**A.** Its result_ITMP is -16.6%.

**Q.** For `CC(C)(Oc1ccc(C2CC2(Cl)Cl)cc1)C(=O)O` (centres unmarked), which result_ITMP is on record?
**A.** Its result_ITMP is -0.88%.

**Q.** `CN(CCOc1ccc(-c2ccc3c(c2)OCO3)cc1C(C)(C)C)CC(=O)O` was tested. Which result_ITMP did it give?
**A.** The result_ITMP was 3.89%.

**Q.** With `O=C(O)CCc1nc2ccccc2[nH]1` as the compound, how does the result_ITMP read?
**A.** Its result_ITMP is -0.69%.

**Q.** For `C[C@@H]1CC2C3C[C@H](F)C4=CC(=O)C=C[C@]4(C)[C@@]3(F)[C@@H](O)C[C@]2(C)[C@@]1(O)C(=O)COC(=O)C(C)(C)C` (some centres unmarked), which result_ITMP is on record?
**A.** The result_ITMP was -3.06%.

**Q.** For `CCC(C)(CN(C)C)OC(=O)c1ccccc1` (centres unmarked), which result_ITMP is on record?
**A.** The result_ITMP was -1.47%.

**Q.** For `NCc1c[nH]c(=S)n1[C@H]1CCc2c(F)cc(F)cc2C1`, which result_ITMP is on record?
**A.** Its result_ITMP is 4.75%.

**Q.** How did the result_ITMP turn out when `CCCc1nc(C)c2c(=O)[nH]c(-c3cc(S(=O)(=O)N4CCN(CC)CC4)ccc3OCC)nn12` was run?
**A.** Its result_ITMP is 10.7%.

**Q.** For `C=C(NC(=O)C(=C)NC(=O)c1csc(C2=N[C@@H]3c4csc(n4)[C@H]4NC(=O)c5csc(n5)[C@H]([C@](C)(O)[C@@H](C)O)NC(=O)[C@H]5CSC(=N5)/C(=C/C)NC(=O)[C@H]([C@@H](C)O)NC(=O)c5csc(n5)[C@]3(CC2)NC(=O)[C@H](C)NC(=O)C(=C)NC(=O)[C@H](C)NC(=O)[C@H]([C@@H](C)CC)N[C@@H]2C=Cc3c([C@H](C)O)cc(nc3[C@H]2O)C(=O)O[C@@H]4C)n1)C(N)=O`, which result_ITMP is on record?
**A.** The result_ITMP was -1.79%.

**Q.** `O=C(/C=C/c1ccccc1)NC(NC(=S)Nc1ccc(Cl)cc1)C(Cl)(Cl)Cl` (centres unmarked) was tested. Which result_ITMP did it give?
**A.** Its result_ITMP is -0.56%.

**Q.** With `Cn1c(=O)c2c(ncn2CC(O)CO)n(C)c1=O` (centres unmarked) as the compound, how does the result_ITMP read?
**A.** The result_ITMP was -0.79%.

**Q.** Which result_ITMP does the source give for `NC[C@H]1O[C@H](O[C@H]2[C@H](O[C@@H]3O[C@H](CO)[C@@H](O)[C@H]3O)[C@@H](O)[C@H](N)C[C@@H]2N)[C@H](N)[C@@H](O)[C@@H]1O` here?
**A.** The result_ITMP was -1.8%.

**Q.** How did the result_ITMP turn out when `OCc1ccc(-c2nn(Cc3ccccc3)c3ccccc23)o1` was run?
**A.** Its result_ITMP is -1.24%.

**Q.** For `NCCC(=O)N[C@@H](Cc1cnc[nH]1)C(=O)O`, which result_ITMP is on record?
**A.** The result_ITMP was -4.18%.
